The results in this text go back to the supplement of paper PMC4967469.

pIC50: −log10 of the molar value. IC50 is the fitted dose that halves viability relative to control wells, and lower means more sensitive; where the fit passes the top or lowest dose, that dose stands as a limit. AUC is the area under the same curve over the 256-fold range up to the top dose, as a fraction; the more sensitive the line, the further below 1. An inferred top dose was calculated from the reported fits. For some of these results: Drugs with an entry number were screened twice under separate entries, and the two screens often disagree.

Compound in the first test: NC(=O)c1ccc(N(C(N)=O)c2c(F)cccc2F)nc1-c1ccc(F)cc1F [VX-702]
Briefly: Viability of human cancer cell lines after 72 h of drug (GDSC screen). The conditions noted are these: top dose 2 µM; top dose inferred. The method, then: (§1)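 Human cancer cell lines in 384-well plates, medium with 10% serum, drug for 72 h over a 256-fold dose range (nine 2-fold or five 4-fold steps up to the top dose). Adherent lines were fixed and stained with the nucleic acid dye Syto60, suspension lines read with resazurin; signal relative to control wells, capped at 0 and 100%. One two-parameter sigmoid per drug and line, fitted in a mixed model over all curves with the slope shared within a line.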
Consider “RPMI-8402 (T-cell lymphoblastic leukaemia, suspension)”, for which the AUC came to 0.99 and the pIC50 is less than 5.70.
The matching figures for “RPMI-8866 (chronic myeloid leukaemia, suspension)”: 0.873 and 5.77.
As for RXF393 (kidney, adherent), the AUC turned out to be 0.968 and the pIC50 was less than 5.70.
The matching figures for “SBC-1 (small cell lung carcinoma, suspension)”: 0.988 and less than 5.70.
The matching figures for SF126 (glioma, adherent): 0.985 and less than 5.70.
On to SF268 (glioma, adherent), for which the AUC is 0.985 and the negative logarithm of the IC50 (pIC50) is less than 5.70.

Compound in another test: O=C(c1cc(Cc2n[nH]c(=O)c3ccccc23)ccc1F)N1CCN(C(=O)C2CC2)CC1 [Olaparib]
The test is described as above. The conditions noted are these: top dose 5 µM; screen: GDSC drug entry 1017; top dose inferred. The method, then: as §1
In the case of NCI-SNU-5 (stomach, suspension), the AUC was 0.985 and the pIC50 was less than 5.30.
For the cell line NCI-SNU-16 (stomach, suspension), the AUC turned out to be 0.973 and the pIC50 is less than 5.30.
For the cell line NH-12 (neuroblastoma, adherent), the AUC was 0.951 and the pIC50 was less than 5.30.
On to NMC-G1 (glioma, adherent), for which the AUC was determined as 0.949 and the pIC50 was less than 5.30.
Consider NOS-1 (osteosarcoma, adherent), for which the AUC turned out to be 0.924 and the negative logarithm of the IC50 (pIC50) was less than 5.30.
The matching figures for “OCI-AML3 (acute myeloid leukaemia, suspension)”: 0.966 and less than 5.30.
Take “OCI-AML5 (acute myeloid leukaemia, suspension)”: the AUC was 0.961 and the negative-log IC50 (pIC50) is less than 5.30.
As to OCI-LY-19 (B-cell lymphoma, suspension), the AUC amounted to 0.882 and the pIC50 was 5.34.
For OCUB-M (breast, adherent), the AUC was 0.958 and the pIC50 is less than 5.30.
On to ONS-76 (medulloblastoma, adherent), for which the AUC came out at 0.89 and the pIC50 was less than 5.30.
The matching figures for OS-RC-2 (kidney, adherent): 0.973 and less than 5.30.
Consider RH-1 (rhabdomyosarcoma, adherent), for which the AUC amounted to 0.992 and the pIC50 is less than 5.30.
Consider RKO (large intestine, adherent), for which the AUC stood at 0.978 and the pIC50 was less than 5.30.
Take RL (B-cell lymphoma, suspension): the AUC came out at 0.99 and the negative-log IC50 (pIC50) is less than 5.30.
For “RPMI-8402 (T-cell lymphoblastic leukaemia, suspension)”, the AUC was 0.989 and the negative logarithm of the IC50 (pIC50) is less than 5.30.
“RPMI-8866 (chronic myeloid leukaemia, suspension)”: the AUC was 0.81 and the pIC50 was 5.62.
For RXF393 (kidney, adherent), the AUC worked out at 0.918 and the pIC50 is less than 5.30.
For “SBC-1 (small cell lung carcinoma, suspension)”, the AUC came out at 0.987 and the pIC50 is less than 5.30.
Consider SF126 (glioma, adherent), for which the AUC was determined as 0.984 and the pIC50 is less than 5.30.
Regarding SF268 (glioma, adherent), the AUC came to 0.984 and the pIC50 was less than 5.30.

The test is the same for the next values; noted with them: top dose 10 µM; screen: GDSC drug entry 1495.
As for NCI-SNU-5 (stomach, suspension), the AUC worked out at 0.976 and the pIC50 was less than 5.00.
Take NCI-SNU-16 (stomach, suspension): the AUC turned out to be 0.989 and the pIC50 was less than 5.00.
The matching figures for NMC-G1 (glioma, adherent): 0.907 and less than 5.00.
Regarding NOS-1 (osteosarcoma, adherent), the AUC turned out to be 0.959 and the negative-log IC50 (pIC50) was less than 5.00.
As to “OCI-AML3 (acute myeloid leukaemia, suspension)”, the AUC amounted to 0.98 and the pIC50 was less than 5.00.
The matching figures for “OCI-AML5 (acute myeloid leukaemia, suspension)”: 0.944 and less than 5.00.
The matching figures for OCI-LY-19 (B-cell lymphoma, suspension): 0.927 and less than 5.00.
For the cell line OCUB-M (breast, adherent), the AUC is 0.952 and the negative logarithm of the IC50 (pIC50) is less than 5.00.
ONS-76 (medulloblastoma, adherent): the AUC stood at 0.903 and the pIC50 was less than 5.00.
For OS-RC-2 (kidney, adherent), the AUC was 0.948 and the pIC50 is less than 5.00.
The matching figures for RH-1 (rhabdomyosarcoma, adherent): 0.871 and 5.16.
Consider RKO (large intestine, adherent), for which the AUC was found to be 0.974 and the pIC50 is less than 5.00.
The matching figures for RL (B-cell lymphoma, suspension): 0.989 and less than 5.00.
On to “RPMI-8402 (T-cell lymphoblastic leukaemia, suspension)”, for which the AUC was determined as 0.932 and the pIC50 was less than 5.00.
Consider “RPMI-8866 (chronic myeloid leukaemia, suspension)”, for which the AUC worked out at 0.963 and the negative-log IC50 (pIC50) is less than 5.00.
The matching figures for RXF393 (kidney, adherent): 0.934 and less than 5.00.
For “SBC-1 (small cell lung carcinoma, suspension)”, the AUC was 0.925 and the pIC50 was less than 5.00.
For the cell line SF126 (glioma, adherent), the AUC was found to be 0.937 and the pIC50 was less than 5.00.
The matching figures for SF268 (glioma, adherent): 0.925 and less than 5.00.

Compound in another test: O=C1NC(=O)c2c1c(-c1ccccc1Cl)cc1[nH]c3ccc(O)cc3c21 [Wee1 inhibitor 681640]
The description is as above. The conditions noted are these: top dose 2 µM; top dose inferred. The method, then: as §1
In the case of NCI-SNU-5 (stomach, suspension), the AUC is 0.986 and the pIC50 is less than 5.70.
The matching figures for NCI-SNU-16 (stomach, suspension): 0.966 and less than 5.70.
In the case of NH-12 (neuroblastoma, adherent), the AUC is 0.883 and the pIC50 is less than 5.70.
NMC-G1 (glioma, adherent): the AUC turned out to be 0.953 and the negative-log IC50 (pIC50) was less than 5.70.
The matching figures for NOS-1 (osteosarcoma, adherent): 0.896 and less than 5.70.
With “OCI-AML3 (acute myeloid leukaemia, suspension)”, the AUC came out at 0.988 and the pIC50 was less than 5.70.
Turning to “OCI-AML5 (acute myeloid leukaemia, suspension)”, the AUC is 0.963 and the pIC50 is less than 5.70.
Turning to OCI-LY-19 (B-cell lymphoma, suspension), the AUC came out at 0.924 and the pIC50 was less than 5.70.
As for OCUB-M (breast, adherent), the AUC was 0.978 and the pIC50 is less than 5.70.
Take ONS-76 (medulloblastoma, adherent): the AUC worked out at 0.848 and the pIC50 is 5.78.
The matching figures for OS-RC-2 (kidney, adherent): 0.928 and less than 5.70.
The matching figures for RH-1 (rhabdomyosarcoma, adherent): 0.939 and less than 5.70.
The matching figures for RKO (large intestine, adherent): 0.905 and less than 5.70.
As to RL (B-cell lymphoma, suspension), the AUC is 0.99 and the pIC50 was less than 5.70.
For “RPMI-8402 (T-cell lymphoblastic leukaemia, suspension)”, the AUC worked out at 0.99 and the negative-log IC50 (pIC50) was less than 5.70.
On to “RPMI-8866 (chronic myeloid leukaemia, suspension)”, for which the AUC came out at 0.875 and the pIC50 was 5.76.
As for RXF393 (kidney, adherent), the AUC worked out at 0.952 and the pIC50 is less than 5.70.
The matching figures for “SBC-1 (small cell lung carcinoma, suspension)”: 0.989 and less than 5.70.
As to SF126 (glioma, adherent), the AUC amounted to 0.984 and the pIC50 is less than 5.70.
SF268 (glioma, adherent): the AUC is 0.965 and the pIC50 is less than 5.70.

For orientation: pIC50 means −log10 of the IC50, conventionally taken in molar units.
